Test results published in the supplement of paper PMC11417369.
± gives the standard deviation of the averaged measurements. This is one part of the list.

Test system: PfAP2-G AP2 domain (GST-tagged)
Assay: gcPBM binding intensity (ln(normalized median fluorescence intensity)); higher = stronger DNA binding
In short: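 Alexa488 anti-GST antibody, scanned at 488 nm, detected GST-tagged P. falciparum DNA-binding domains that had been expressed in E. coli and incubated for 1 h on an Agilent 4 × 180k array. The array carried primer-extended double-stranded 36-bp intergenic genomic probes and negative controls. Binding intensity is the highest Masliner-normalised natural-log median intensity across replicate spots of either orientation of each probe.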

**Q.** How did the “gcPBM binding intensity (ln)” value turn out when “TATAAAATAAGACATGCATGTTATACATATATATAT [TGCATGCA_site314]” was run?
**A.** Its value is 10 ± 0.33.

**Q.** For “CCCCCCGTGTTATATACACACATAATCAAATAAAAT [CACACA_site4111]”, which “gcPBM binding intensity (ln)” value is on record?
**A.** Its value is 11.8 ± 0.99.

**Q.** “TCTTATTAAAATATTTATATAGGTAATCACAATATT [GTGCAC_negctrl_site568]” was tested. Which “gcPBM binding intensity (ln)” value did it give?
**A.** Its value is 9.83 ± 0.042.

**Q.** Which “gcPBM binding intensity (ln)” value does the source give for “AGAAATAAGAAATATACACACATATATATATATATA [CACACA_site2808]” here?
**A.** The value was 10.3 ± 0.9.

**Q.** For “ATCATGTTATATATGTGTACATATATATGATATAAT [XGTACX_site991]”, which “gcPBM binding intensity (ln)” value is on record?
**A.** Its value is 11.2 ± 0.81.

**Q.** “TGAACAATGTATAATTGTACGCAACGAAAATAAAAA [XGTACX_site1559]” was tested. Which “gcPBM binding intensity (ln)” value did it give?
**A.** Its value is 11.5 ± 0.86.

**Q.** Which “gcPBM binding intensity (ln)” value does the source give for “ATATATAATTACACAAATAAAAAAATAAAATGAAAT [CACACA_negctrl_site1513]” here?
**A.** Its value is 9.825 ± 0.007.

**Q.** How did the “gcPBM binding intensity (ln)” value turn out when “AGAATAAAAATACAAGCACACATGTATGAAATATAT [CACACA_site3213]” was run?
**A.** Its value is 9.96 ± 0.24.

**Q.** With “ATTATAAATTAAAATACACACATATATACCTAATAT [CACACA_site5541]” as the sequence, how does the “gcPBM binding intensity (ln)” value read?
**A.** Its value is 9.98 ± 0.014.

**Q.** For “CAACGATACAAAAAAGGTACACATATATATATATAT [XGTACX_site8688]”, which “gcPBM binding intensity (ln)” value is on record?
**A.** The value was 11.3 ± 0.91.

**Q.** With “TATATAAAATTCTATTGTACATGTTATACGAAAGAA [XGTACX_site5711]” as the sequence, how does the “gcPBM binding intensity (ln)” value read?
**A.** Its value is 11 ± 0.71.

**Q.** For “CAATTTTCTAATGAAACATGCAAAATAAAATTTTAT [TGCATGCA_site13]”, which “gcPBM binding intensity (ln)” value is on record?
**A.** Its value is 10.1 ± 0.12.

**Q.** Which “gcPBM binding intensity (ln)” value does the source give for “TTCTTTTTAATGTCGGTGCAACTCCATAAAAACAAA [GTGCAC_site9488]” here?
**A.** Its value is 10.2 ± 0.37.

**Q.** How did the “gcPBM binding intensity (ln)” value turn out when “GAGGATCATCAATTCACACACATAAAAATGAAGTTA [CACACA_site3078]” was run?
**A.** The value was 9.835 ± 0.035.

**Q.** Which “gcPBM binding intensity (ln)” value does the source give for “TTTATATTTAAATGCATGCACTTTCTATTTTTTTTT [GTGCAC_site9959]” here?
**A.** Its value is 9.63 ± 0.25.

**Q.** For “GAATAAAGGAGAGGCACACATATATATATATATATA [CACACA_site2452]”, which “gcPBM binding intensity (ln)” value is on record?
**A.** The value was 10.1 ± 0.3.

**Q.** Which “gcPBM binding intensity (ln)” value does the source give for “TATTTGATAAATTATACACACACAATATATATAAAA [CACACA_site8625]” here?
**A.** Its value is 10.04 ± 0.085.

**Q.** How did the “gcPBM binding intensity (ln)” value turn out when “CAAATACATAGACACACACACATATACATATTTATA [CACACA_site7610]” was run?
**A.** The value was 10.1 ± 0.11.

**Q.** How did the “gcPBM binding intensity (ln)” value turn out when “ACATAAAATAAATATACACACATATGTATATATCAT [CACACA_site7424]” was run?
**A.** Its value is 9.965 ± 0.049.

**Q.** For “TTATTTTATAAATCGAAAACAAACAAAAAAAAGATA [XGTACX_negctrl_site178]”, which “gcPBM binding intensity (ln)” value is on record?
**A.** Its value is 10.2 ± 0.27.

**Q.** “TTGCTGTATTTATTTTGTACACATTTGGCATTATAT [XGTACX_site3408]” was tested. Which “gcPBM binding intensity (ln)” value did it give?
**A.** Its value is 11.2 ± 0.73.

**Q.** “AAAAAAAAAAGAAAGAGTACTTTTTCAATACATATA [XGTACX_site2468]” was tested. Which “gcPBM binding intensity (ln)” value did it give?
**A.** Its value is 11.1 ± 0.7.

**Q.** How did the “gcPBM binding intensity (ln)” value turn out when “AAGAAAAACAATACGTGTACCAAGCATCCTACTAAC [XGTACX_site6628]” was run?
**A.** The value was 10.9 ± 0.42.

**Q.** For “GACCATGTTAACAAAGCATGCATCTCTATATGTTTA [TGCATGCA_site358]”, which “gcPBM binding intensity (ln)” value is on record?
**A.** Its value is 9.87 ± 0.26.
